Assay results as given in PMC4336329 (PLoS ONE, 2015).
Among all 310,000 compounds or so, about 14,000 (4.5%) showed an effect of 50% or more. Effects have a minus sign here. This is one part of the list.

target: human ether-à-go-go-related gene (hERG) potassium channel (human, UniProt Q12809); test: primary screen, population patch clamp on CHO cells stably expressing hERG
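Note: peak tail current of the secondary pulse compared with the same well before compound.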

Sequence of human ether-à-go-go-related gene (hERG) potassium channel (Q12809 whole entry, looked up): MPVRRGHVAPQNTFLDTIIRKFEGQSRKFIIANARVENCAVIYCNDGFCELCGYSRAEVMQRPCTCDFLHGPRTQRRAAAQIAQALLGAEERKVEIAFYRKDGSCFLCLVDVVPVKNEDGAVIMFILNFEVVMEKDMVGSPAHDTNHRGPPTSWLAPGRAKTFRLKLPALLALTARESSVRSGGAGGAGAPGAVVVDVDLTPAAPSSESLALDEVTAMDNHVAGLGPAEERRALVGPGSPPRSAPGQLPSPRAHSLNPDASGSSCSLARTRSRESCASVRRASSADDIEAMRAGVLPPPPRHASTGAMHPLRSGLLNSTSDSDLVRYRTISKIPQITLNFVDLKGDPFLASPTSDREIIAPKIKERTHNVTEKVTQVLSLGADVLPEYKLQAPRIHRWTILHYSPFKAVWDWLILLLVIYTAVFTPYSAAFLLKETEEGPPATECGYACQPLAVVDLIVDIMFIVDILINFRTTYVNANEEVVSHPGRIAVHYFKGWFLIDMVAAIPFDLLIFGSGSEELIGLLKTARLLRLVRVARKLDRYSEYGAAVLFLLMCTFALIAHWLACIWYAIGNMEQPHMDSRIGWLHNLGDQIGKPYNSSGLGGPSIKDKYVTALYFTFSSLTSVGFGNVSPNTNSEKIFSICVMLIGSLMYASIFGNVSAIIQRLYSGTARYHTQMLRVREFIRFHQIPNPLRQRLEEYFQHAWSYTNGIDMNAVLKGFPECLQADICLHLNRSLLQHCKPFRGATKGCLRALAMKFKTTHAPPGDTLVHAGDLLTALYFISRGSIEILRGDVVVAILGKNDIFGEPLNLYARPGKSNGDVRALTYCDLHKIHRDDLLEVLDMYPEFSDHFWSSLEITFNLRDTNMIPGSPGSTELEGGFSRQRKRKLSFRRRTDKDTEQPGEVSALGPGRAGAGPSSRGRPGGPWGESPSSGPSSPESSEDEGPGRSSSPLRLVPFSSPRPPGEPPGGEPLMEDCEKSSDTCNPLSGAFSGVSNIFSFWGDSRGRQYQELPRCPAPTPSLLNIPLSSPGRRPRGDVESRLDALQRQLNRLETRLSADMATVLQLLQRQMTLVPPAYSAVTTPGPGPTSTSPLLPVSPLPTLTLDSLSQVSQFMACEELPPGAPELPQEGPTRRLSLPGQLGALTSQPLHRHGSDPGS

Row | SMILES | hERG current change (%, negative = inhibition) at 10uM [%]
1 | CCOc1cc(/C=N\n2nnnc2N)ccc1O | 16.8
2 | COc1ccc(-c2cc(-c3cc(C)ccc3O)[nH]n2)cc1 | 15.6
3 | CC1(C)CC(=O)C2=C(C1)OC1=C(C(=O)CC(C)(C)C1)C2c1cc([N+](=O)[O-])cc([N+](=O)[O-])c1O | 10.6
4 | O=C(NCc1ccc(Cl)cc1)c1ccc(Cn2cc(C(F)(F)F)ccc2=O)cc1 | -1.69
5 | COc1ccc(O)c(/C=N/N=C2/C(=O)Nc3ccccc32)c1 | 27.8
6 | Cc1ccc2cc3c(NC(=O)c4ccco4)nn(C)c3nc2c1 | -5.62
7 | COc1ccc(CNC(=O)c2cnn3c(C(F)F)cc(C)nc23)cc1 | -3.22
8 | CCOc1ccccc1/C=N/Nc1ccccc1[N+](=O)[O-] | -5.13
9 | CC(C)OP(=O)(Oc1ccc(C(O)C(Cl)(Cl)Cl)cc1)OC(C)C (centres unmarked) | 6.54
10 | O=[N+]([O-])C(=c1ccc2c(c1)N1C3=C(CCCC3)CC3CCCCC31N=2)[N+](=O)[O-] (centres unmarked) | 14.5
11 | CCCCCn1c(SCc2cccc(C)c2)nc2c1c(=O)[nH]c(=O)n2C | 15.5
12 | CCOc1ccccc1C(=O)N(Cc1ccccc1)Cc1cc2cc3c(cc2[nH]c1=O)OCCO3 | -2.49
13 | CCCS(=O)(=O)c1cnc(C2COc3ccccc3O2)nc1N (centres unmarked) | 4.08
14 | COc1cc(OC)cc(C(=O)Nn2c(C)nc3ccccc3c2=O)c1 | 9.93
15 | COc1cccc(C(=O)COc2cccc(NC(=O)c3cccc([N+](=O)[O-])c3)c2)c1 | -11.2
16 | O=C(N[C@H]1CCC(=O)N([C@H](CSc2ccccc2)Cc2ccccc2)CC1)OCc1ccccc1 | -37.6
17 | CCc1c(C)sc(NC(=O)c2cc(-c3ccc(OC)c(OC)c3)on2)c1C#N | 14
18 | O=C(NCC1CCCO1)C1CCN(C2CCN(Cc3ccco3)CC2)CC1 (centres unmarked) | -51
19 | COc1cc(NC(=O)COc2ccccc2[N+](=O)[O-])ccc1NC(=O)c1ccco1 | -14.3
20 | O=C(Nc1ccc(Cl)cc1F)C1CCN(S(=O)(=O)c2cccc3nonc23)CC1 | 16.4
21 | Cn1c(SCc2ccccn2)nnc1-c1ccccc1 | 18.2
22 | CCC(C)N1CCC(Oc2ccc(C(=O)NCc3ccccn3)cc2)CC1 (centres unmarked) | 6.23

Row | SMILES | hERG current change (%, negative = inhibition) at 10uM [%]
23 | Cc1nn(C)c(C)c1/C=N/N=C1\CCC2C3CCc4cc(O)ccc4C3CCC12C (centres unmarked) | 7.41
24 | CCCCn1c(N)c(N(CC(C)C)C(=O)C2CC(=O)N(Cc3ccco3)C2)c(=O)[nH]c1=O (centres unmarked) | -20.9
25 | O=C(O)c1cn(Cc2ccccc2)c2ccccc2c1=O | -79.3
26 | COc1ccc(OC)c(S(=O)(=O)N2CCC(C(=O)Nc3cccc(C)c3)CC2)c1 | -38.5
27 | CC(C)(C)c1ccc(C(=O)CC(=O)c2cc(Cl)ccc2O)cc1 | -19.9
28 | Cc1cccc(C)c1NC(=O)C1CC(=O)N(C(C)C)C1 (centres unmarked) | 6.92
29 | N#CCC(=O)Nc1ccc(C(=O)OCC(=O)N(C2CCCCC2)C2CCCCC2)cc1 | 12.2
30 | Cc1ccc(C(=O)N2CCCC(C(=O)c3ccc(Cl)cc3C)C2)cn1 (centres unmarked) | -1.41
31 | Cn1c(SCC(=O)N2CCCC2)nc2ccccc2c1=O | -33.3
32 | CSc1cccc(NS(=O)(=O)c2ccc(-c3coc(C)n3)cc2)c1 | 22.6
33 | Cc1ccc(NC(=O)CCn2ccc([N+](=O)[O-])n2)nc1 | 1.42
34 | COc1ccc(S(=O)(=O)N(C)c2ccc(C(=O)NCc3ccccn3)cc2)cc1 | 0.789
35 | O=C(Nc1ccc(Cl)cc1)Nc1nccs1 | -30.1
36 | Cc1cc2cc(CNS(=O)(=O)c3ccc4ccccc4c3)ccc2n1C | 13.1
37 | COc1ccc(NC(=O)c2cc3nc(-c4ccccc4)cc(-c4ccccc4)n3n2)c(OC)c1 | 7.38
38 | Cc1noc(C)c1COc1ccc(C(=O)NCCc2ccccn2)cc1 | 29
39 | CC(=O)Nc1ccc(S(=O)(=O)NCCc2cc3c(C)ccc(C)c3[nH]c2=O)cc1 | -1.92
40 | CCC(C)NS(=O)(=O)c1ccc(NC(C)=O)cc1 (centres unmarked) | 0.712
41 | CCN1C(=O)NC(c2ccc(Cl)cc2)C2=C1CCCC2=O (centres unmarked) | 9.6
42 | Cc1ccc(/C=C/C(=O)NCc2ccc3c(c2)OCO3)o1 | -17.6
43 | COc1ccc(-n2nc(C(C)=O)c(=O)[nH]c2=O)cc1 | 23.8
44 | CCCCN(C(=O)c1ccc(C)cc1)c1c(N)n(CCC)c(=O)[nH]c1=O | 13.4
